From patent publication US12171876B2, “Cationic lipid compound, composition containing same and use thereof” (HANGZHOU TIANLONG PHARMACEUTICAL CO., LTD., priority 2022, dated 2024)
Values joined by “and” are separate entries in the source; they are usually repeats but may differ in a detail not shown here. Equal values may be shown once. The name of at least one read-out is uncertain. Some results were stated once for a whole list of compounds, not compound by compound.

Tests used:
female BALB/C mice = experiment: Mouse live imaging test of LNP formulations of Fluc-mRNA; type: in vivo
Method: A LNP formulation containing 10 μg of Fluc-mRNA was intramuscularly injected into female BALB/C mice aged 4-6 weeks and weighing 17-19 g, and at specific time points (3 h, 6 h, 24 h, 48 h and 72 h) after administration, mice were injected intraperitoneally with a fluorescent imaging substrate. The mice moved freely for 5 minutes, and then the average radiation intensity (corresponding to fluorescence expression intensity) of the protein expressed by the mRNA carried by LNP in mice was detected using the IVIS Spectrum small animal live imager.
To compare the protein expression and duration in mice of LNP formulations prepared from cationic lipid YK-009 and compound 25, we prepared LNP formulations with Fluc-mRNA contents of 10 μg, 7.5 μg, 5 μg and 2.5 μg (the carrier components of LNP formulations were cationic lipid, neutral lipid, structured lipid and polymer-conjugated lipid with a molar ratio of 50:10:38.5:1.5, wherein the cationic lipid was YK-009 or compound 25). The mouse live imaging test method was the same as above.

293T cells = experiment: Fluorescent detection of Fluc-mRNA (transfection efficiency of LNP formulations in cells); type: cell-based; conditions: 24 hours; for Times relative to compound 23: RLU
Method: Cell recovery and passage: 293T cells were recovered, cultured in a culture dish, and passaged to the required number of cells.
Seeding plate: The cells in the culture dish were digested and counted. Cells were spread in a 96-well plate at 10,000 cells per well and in a 12-well plate at 150,000 cells per well. Cells were cultured overnight until the cells adhered to the wall.
A LNP formulation containing 0.3 μg of Fluc-mRNA (the carrier components of the LNP formulation were cationic lipid, neutral lipid, structured lipid and polymer-conjugated lipid with a molar ratio of 50:10:38.5:1.5, wherein the cationic lipid was listed in Table 1) was added to the cell culture medium of a 96-well plate, and further incubated for 24 hours. The corresponding reagent was added according to the instructions of the […] Luciferase Assay Kit, and the fluorescence expression intensity of each well was detected by an IVIS fluorescence detection system. This test verified the transfection efficiency of LNP formulations in cells.
In order to further compare the intracellular transfection efficiency of LNP formulations prepared from cationic lipid YK-009 and compound 25, we prepared LNP formulations with Fluc-mRNA contents of 0.3 μg, 0.225 μg, 0.15 μg and 0.075 μg, respectively (the carrier components of the LNP formulation were cationic lipid, neutral lipid, structured lipid and polymer-conjugated lipid with a molar ratio of 50:10:38.5:1.5, wherein the cationic lipid was YK-009 or compound 25). The intracellular transfection activity of the prepared LNP formulations was detected, and the detection method was the same as above.

[1] = 10 μg of Fluc-mRNA intramuscularly, 3 h
[2] = 10 μg of Fluc-mRNA intramuscularly, 6 h
[3] = 10 μg of Fluc-mRNA intramuscularly, 24 h
[4] = 10 μg of Fluc-mRNA intramuscularly, 48 h
[5] = 10 μg of Fluc-mRNA intramuscularly, 72 h
[6] = LNP formulation containing 0.3 μg of Fluc-mRNA
[7] = mRNA transfection, time not stated

Q: How did the average radiation intensity (female BALB/C mice; [1]) turn out when CCCCC/C=C\C/C=C\CCCCCCCCC(CCCCCCCC/C=C\C/C=C\CCCCC)OC(=O)CCCN(C)C [MC3, reference compound] was run?
A: The average radiation intensity was 126862.

Q: What about the average radiation intensity (female BALB/C mice; [2]) of the same compound?
A: Its average radiation intensity is 130678.

Q: And the average radiation intensity (female BALB/C mice; [3])?
A: The average radiation intensity was 28780.

Q: What about the average radiation intensity (female BALB/C mice; [4]) of the same compound?
A: Its average radiation intensity is 14140.

Q: What about the average radiation intensity (female BALB/C mice; [5]) of the same compound?
A: The average radiation intensity was 6716.

Q: And the “Relative light unit (RLU)” value (293T cells; [6])?
A: The value was 129292 RLU.

Q: And the “Times relative to compound 23” value (293T cells; [6])?
A: Its value is 0.2 times.

Q: What does the source list for CCCCCCCCCCCOC(=O)CCCCCN(CCO)CCCCCC(=O)OCC(CCCCCCCC)CCCCCCCC [YK-007, 2-octyldecyl 6-((2-hydroxyethyl)(6-oxo-6-(undecyloxy)hexyl)amino)hexanoate]?
A: Relative light unit (RLU) (293T cells; [6]): 471960 RLU; Times relative to compound 23 (293T cells; [6]): 0.7 times

Q: With CCCCCCCCCOC(=O)CCCN(CCO)CCCCCC(=O)OCC(CCCCCCCC)CCCCCCCC [YK-008, 2-octyldecyl 6-((4-(nonyloxy)-4-oxobutyl)(2-hydroxyethyl)amino)hexanoate] as the compound, how does the “Times relative to compound 23” value (293T cells; [6]) read?
A: The value was 1.9 times.

Q: Which results are given for CCCCCCCCCOC(=O)CCCCCCCN(CCO)CCCCCC(=O)OC(CCCCCCCC)CCCCCCCC [Compound 27, nonyl 8-((2-hydroxyethyl)(6-((9-heptadecyl)oxy)-6-oxohexyl)amino)octanoate, reference compound]?
A: average radiation intensity (female BALB/C mice; [1]): 632450; average radiation intensity (female BALB/C mice; [2]): 609570; average radiation intensity (female BALB/C mice; [3]): 195700; average radiation intensity (female BALB/C mice; [4]): 21765; average radiation intensity (female BALB/C mice; [5]): 5512; Relative light unit (RLU) (293T cells; [6]): 414334 RLU; Times relative to compound 23 (293T cells; [6]): 0.6 times

Q: How did the average radiation intensity (female BALB/C mice; [1]) turn out when CCCCCCCCCCOC(=O)CCCCCN(CCO)CCCCCC(=O)OCC(CCCCCCCC)CCCCCCCC [YK-003, 2-octyldecyl 6-((6-(decyloxy)-6-oxohexyl)(2-hydroxyethyl)amino)hexanoate] was run?
A: Its average radiation intensity is 1500820.

Q: And the average radiation intensity (female BALB/C mice; [2])?
A: Its average radiation intensity is 770220.

Q: And the average radiation intensity (female BALB/C mice; [3])?
A: Its average radiation intensity is 527800.

Q: What about the average radiation intensity (female BALB/C mice; [4]) of the same compound?
A: Its average radiation intensity is 128720.

Q: What about the average radiation intensity (female BALB/C mice; [5]) of the same compound?
A: Its average radiation intensity is 39538.

Q: What about the “expression in mice, times higher than that for compound 27” value (female BALB/C mice; [7]) of the same compound?
A: The value was > 7 times.

Q: And the “Relative light unit (RLU)” value (293T cells; [6])?
A: Its value is 346698 RLU.

Q: And the “Times relative to compound 23” value (293T cells; [6])?
A: Its value is 0.5 times.

Q: For CCCCCCCCCCOC(=O)CCCN(CCO)CCCCC(=O)OCC(CCCCCCCC)CCCCCCCC [YK-006, 2-octyldecyl 5-((4-(decyloxy)-4-oxobutyl)(2-hydroxyethyl)amino)pentanoate], which “Times relative to compound 23” value (293T cells; [6]) is on record?
A: The value was 4.1 times.

Q: With CCCCCCCCCCOC(=O)CCCN(CCO)CCCC(=O)OCC(CCCCCCCC)CCCCCCCC [YK-004, 2-octyldecyl 4-((4-(decyloxy)-4-oxobutyl)(2-hydroxyethyl)amino)butyrate] as the compound, how does the average radiation intensity (female BALB/C mice; [1]) read?
A: The average radiation intensity was 69640.

Q: What about the average radiation intensity (female BALB/C mice; [2]) of the same compound?
A: The average radiation intensity was 40100.

Q: And the average radiation intensity (female BALB/C mice; [3])?
A: The average radiation intensity was 16080.

Q: And the average radiation intensity (female BALB/C mice; [4])?
A: The average radiation intensity was 4236.

Q: What about the average radiation intensity (female BALB/C mice; [5]) of the same compound?
A: The average radiation intensity was 2066.

Q: What about the “Relative light unit (RLU)” value (293T cells; [6]) of the same compound?
A: The value was 138599 RLU.

Q: And the “Times relative to compound 23” value (293T cells; [6])?
A: Its value is 0.2 times.

Q: What does the source list for CCCCCCCCCOC(=O)CCCCCCCN(CCO)CCCCCCCCCC(=O)OC(CCCCCCCC)CCCCCCCC [Compound 23, nonyl 8-((2-hydroxyethyl)(10-((9-heptadecyl)oxy)-10-oxodecyl)amino)octanoate, reference compound]?
A: average radiation intensity (female BALB/C mice; [1]): 554600; average radiation intensity (female BALB/C mice; [2]): 766540; average radiation intensity (female BALB/C mice; [3]): 142800; average radiation intensity (female BALB/C mice; [4]): 19746; average radiation intensity (female BALB/C mice; [5]): 4801; Relative light unit (RLU) (293T cells; [6]): 654930 RLU; Times relative to compound 23 (293T cells; [6]): 1.0 times

Q: With CCCCCCCCCCCOC(=O)CCCN(CCO)CCCCCC(=O)OCC(CCCCCCCC)CCCCCCCC [YK-001, 2-octyldecyl 6-((4-(undecyloxy)-4-oxobutyl) (2-hydroxyethyl)amino)hexanoate] as the compound, how does the “Times relative to compound 23” value (293T cells; [6]) read?
A: Its value is 3.4 times.

Q: For CCCCCCCCCCOC(=O)CCCCN(CCO)CCCCCC(=O)OCC(CCCCCCCC)CCCCCCCC [YK-002, 2-octyldecyl 6-((5-(decyloxy)-5-oxopentyl)(2-hydroxyethyl)amino)hexanoate], which “Times relative to compound 23” value (293T cells; [6]) is on record?
A: The value was 2.0 times.

Q: CCCCCCCCCCOC(=O)CCCN(CCO)CCCCCC(=O)OCC(CCCCCCC)CCCCCCC [YK-010, 2-heptylnonyl 6-((4-(decyloxy)-4-oxobutyl)(2-hydroxyethyl)amino)hexanoate] was tested. Which average radiation intensity (female BALB/C mice; [1]) did it give?
A: The average radiation intensity was 60100.

Q: What about the average radiation intensity (female BALB/C mice; [2]) of the same compound?
A: Its average radiation intensity is 42520.

Q: What about the average radiation intensity (female BALB/C mice; [3]) of the same compound?
A: Its average radiation intensity is 15180.

Q: What about the average radiation intensity (female BALB/C mice; [4]) of the same compound?
A: Its average radiation intensity is 4676.

Q: And the average radiation intensity (female BALB/C mice; [5])?
A: The average radiation intensity was 810.2.

Q: And the “Relative light unit (RLU)” value (293T cells; [6])?
A: Its value is 93801 RLU.

Q: And the “Times relative to compound 23” value (293T cells; [6])?
A: The value was 0.1 times.

Q: Which “Times relative to compound 23” value (293T cells; [6]) does the source give for CCCCCCCCCCOC(=O)CCCN(CCO)CCCCCCCC(=O)OC(CCCCCCCC)CCCCCCCC [YK-005, 9-heptadecyl 8-((4-(decyloxy)-4-oxobutyl)(2-hydroxyethyl)amino)octanoate] here?
A: Its value is 2.2 times.

Q: With CCCCCCCCCCOC(=O)CCCN(CCO)CCCCCC(=O)OCC(CCCCCC)CCCCCC [YK-011, 2-hexyloctyl 6-((4-(decyloxy)-4-oxobutyl)(2-hydroxyethyl)amino)hexanoate] as the compound, how does the “Relative light unit (RLU)” value (293T cells; [6]) read?
A: The value was 285918 RLU.

Q: What about the “Times relative to compound 23” value (293T cells; [6]) of the same compound?
A: The value was 0.4 times.

Q: What does the source list for CCCCCCCCCCOC(=O)CCCN(CCO)CCCCCC(=O)OCC(CCCCCCCC)CCCCCCCC [YK-009, 2-octyldecyl 6-((4-(decyloxy)-4-oxobutyl)(2-hydroxyethyl)amino)hexanoate]?
A: average radiation intensity (female BALB/C mice; [1]): 1234280; average radiation intensity (female BALB/C mice; [2]): 976000; average radiation intensity (female BALB/C mice; [3]): 757440; average radiation intensity (female BALB/C mice; [4]): 135420; average radiation intensity (female BALB/C mice; [5]): 29435; average radiation intensity (female BALB/C mice; Fluc-mRNA content 2.5 μg, 3 h): 308570; average radiation intensity (female BALB/C mice; Fluc-mRNA content 2.5 μg, 6 h): 244000; average radiation intensity (female BALB/C mice; Fluc-mRNA content 2.5 μg, 24 h): 189360; average radiation intensity (female BALB/C mice; Fluc-mRNA content 2.5 μg, 48 h): 33855; average radiation intensity (female BALB/C mice; Fluc-mRNA content 2.5 μg, 72 h): 7358; average radiation intensity (female BALB/C mice; Fluc-mRNA content 5 μg, 3 h): 617140; average radiation intensity (female BALB/C mice; Fluc-mRNA content 5 μg, 6 h): 488000; average radiation intensity (female BALB/C mice; Fluc-mRNA content 5 μg, 24 h): 378720; average radiation intensity (female BALB/C mice; Fluc-mRNA content 5 μg, 48 h): 67710; average radiation intensity (female BALB/C mice; Fluc-mRNA content 5 μg, 72 h): 14717; average radiation intensity (female BALB/C mice; Fluc-mRNA content 7.5 μg, 3 h): 925710; average radiation intensity (female BALB/C mice; Fluc-mRNA content 7.5 μg, 6 h): 732000; average radiation intensity (female BALB/C mice; Fluc-mRNA content 7.5 μg, 24 h): 568080; average radiation intensity (female BALB/C mice; Fluc-mRNA content 7.5 μg, 48 h): 101565; average radiation intensity (female BALB/C mice; Fluc-mRNA content 7.5 μg, 72 h): 22076; average radiation intensity (female BALB/C mice; Fluc-mRNA content 10 μg, 3 h): 1234280; average radiation intensity (female BALB/C mice; Fluc-mRNA content 10 μg, 6 h): 976000; average radiation intensity (female BALB/C mice; Fluc-mRNA content 10 μg, 24 h): 757440; average radiation intensity (female BALB/C mice; Fluc-mRNA content 10 μg, 48 h): 135420; average radiation intensity (female BALB/C mice; Fluc-mRNA content 10 μg, 72 h): 29435; expression in mice, times higher than that for compound 23 (female BALB/C mice; [7]): > 7 times; Relative light unit (RLU) (293T cells; Fluc-mRNA content 0.075 μg): 1444785 RLU; Relative light unit (RLU) (293T cells; Fluc-mRNA content 0.15 μg): 3725475 RLU; Relative light unit (RLU) (293T cells; Fluc-mRNA content 0.225 μg): 5234354 RLU; Relative light unit (RLU) (293T cells; Fluc-mRNA content 0.3 μg): 5479373 RLU; Relative light unit (RLU) (293T cells; [6]): 5479373 RLU; Times relative to compound 23 (293T cells; [6]): 8.4 times and 8 times
